From the supplement of paper PMC9446081 come the findings set out here.

Hit rate of the full screen: of about 39,000 compounds, about 220 (0.56%) showed activity. This is one part of the list.
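Also: static incubation at 37 °C against the wild-type strain, values averaged over two biological replicates.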

The subject of the test is Escherichia coli K-12 BW25113. Nature of the test: relative growth (OD600 normalised to plate interquartile mean) (fraction); higher = less growth inhibition, active = 0.2 or less. To be noted: 50 µM; LB; incubation time: overnight (16-24 h).
As to `C[C@@H]1CCCCO[C@H](CN(C)C(=O)c2ccccc2)[C@H](C)CN([C@@H](C)CO)C(=O)c2cc(NS(=O)(=O)c3ccc(F)cc3)ccc2O1`, the relative growth was inactive: 1.01.
Turning to `CSc1ccccc1CN`, the relative growth is inactive: 0.987.
The value for `C[C@@H]1CCCCO[C@H](CN(C)S(=O)(=O)c2ccc(Cl)cc2)[C@H](C)CN([C@H](C)CO)C(=O)c2cc(NS(=O)(=O)c3ccccc3)ccc2O1` was inactive: 1.02.
For the compound `Cc1noc(C)c1NC(=O)Nc1ccc2c(c1)C(=O)N([C@H](C)CO)C[C@@H](C)[C@@H](CN(C)Cc1ccc(C(F)(F)F)cc1)OCCCC[C@H](C)O2`, the relative growth is inactive: 1.02.
In the case of `C[C@H](CO)N1C[C@H](C)[C@@H](CN(C)C(=O)Nc2ccccc2)OCc2ccccc2-c2c(n(C)c3ccccc23)C1=O`, the relative growth is inactive: 0.994.
`CNC[C@@H]1OCCCC[C@@H](C)Oc2ccc(NC(=O)Nc3cccc4ccccc34)cc2C(=O)N([C@H](C)CO)C[C@@H]1C`: the relative growth is inactive: 1.01.
The figure for `C[C@@H]1CN([C@H](C)CO)C(=O)c2cc(NC(=O)Nc3ccc(C(F)(F)F)cc3)ccc2O[C@@H]1CN(C)C(=O)Nc1ccccc1` is inactive: 1.01.
Turning to `Cc1noc(C)c1S(=O)(=O)N(C)C[C@@H]1Oc2c(NC(=O)c3cnccn3)cccc2C(=O)N([C@@H](C)CO)C[C@@H]1C`, the relative growth was inactive: 0.999.
As for `COc1cccc(S(=O)(=O)N(C)C[C@H]2OCc3cn(nn3)CCCC(=O)N([C@H](C)CO)C[C@H]2C)c1`, the relative growth is inactive: 0.991.
The value for `Cc1noc(C)c1NC(=O)N(C)C[C@H]1Oc2c(NC(=O)c3cnccn3)cccc2C(=O)N([C@H](C)CO)C[C@@H]1C` was inactive: 0.989.
For the compound `Cc1ccc(S(=O)(=O)Nc2ccc3c(c2)C(=O)N([C@@H](C)CO)C[C@H](C)[C@H](CN(C)S(=O)(=O)c2ccc(C)cc2)OCCCC[C@@H](C)O3)cc1`, the relative growth is inactive: 1.01.
In the case of `NCCCN.O=C(O)C(O)C(O)C(=O)O` (configuration not stated), the relative growth is inactive: 1.01.
The value for `C[C@H](CO)N1C[C@H](C)[C@H](CN(C)S(C)(=O)=O)Oc2ccc(NS(=O)(=O)c3cn(C)cn3)cc2C1=O` was inactive: 0.983; that for `CN1CCN(C(=O)C[C@H]2C=C[C@H](NS(=O)(=O)c3cccc(F)c3)[C@@H](CO)O2)CC1` was inactive: 0.988; that for `Cc1noc(C)c1S(=O)(=O)Nc1ccc2c(c1)C(=O)N([C@@H](C)CO)C[C@@H](C)[C@@H](CN(C)C(=O)Nc1ccc(C(F)(F)F)cc1)OCCCC[C@@H](C)O2` was inactive: 0.91.
The value for `C[C@@H]1CCCCO[C@H](CN(C)S(=O)(=O)c2cn(C)cn2)[C@H](C)CN([C@H](C)CO)C(=O)c2cc(NC(=O)CCCN(C)C)ccc2O1` was inactive: 0.959; that for `COc1ccc(CN(C)C[C@H]2Oc3ccc(NC(=O)Cn4cnnn4)cc3CC(=O)N([C@@H](C)CO)C[C@H]2C)cc1` was inactive: 1.01.
The value for `C[C@@H]1CCCCO[C@@H](CN(C)Cc2ccc(Cl)c(Cl)c2)[C@H](C)CN([C@@H](C)CO)C(=O)c2cc(NC(=O)CCC(F)(F)F)ccc2O1` was inactive: 1; that for `C[C@H](CO)N1C[C@H](C)[C@@H](CN(C)S(=O)(=O)c2cccs2)Oc2ccc(NC(=O)C3CC3)cc2CC1=O` was inactive: 1.01.
For `C[C@H](CO)N1C[C@H](C)[C@@H](CN(C)Cc2ccc(C(=O)O)cc2)Oc2ccc(NC(=O)Cn3cnnn3)cc2CC1=O`, the relative growth was inactive: 0.997.
Turning to `C[C@@H](O)c1ccc2ccccc2c1`, the relative growth was inactive: 1.03.
The value for `COCC#Cc1ccc2c(c1)O[C@@H](CN(C)C(=O)Nc1ccccc1F)[C@@H](C)CN([C@@H](C)CO)S2(=O)=O` was inactive: 1.01; that for `COc1ccc(NC(=O)N(C)C[C@H]2Oc3ncc(C#C[C@H](C)O)cc3C(=O)N([C@H](C)CO)C[C@@H]2C)cc1` was inactive: 1.01.
In the case of `C[C@H](CO)N1C[C@H](C)[C@@H](CN(C)S(=O)(=O)c2cn(C)cn2)Oc2c(NC(=O)Cc3ccccc3)cccc2C1=O`, the relative growth was inactive: 1.05.
Consider `C[C@@H]1CCCCO[C@@H](CN(C)C(=O)C2CCCCC2)[C@@H](C)CN([C@H](C)CO)C(=O)c2cc(NC(=O)Nc3cccc4ccccc34)ccc2O1`, for which the relative growth was inactive: 1.01.
In the case of `COc1cc(OC)c2c(c1)OC(c1ccccc1)CC2=O` (configuration not stated), the relative growth was inactive: 0.812.
The value for `C[C@@H]1CN([C@@H](C)CO)C(=O)c2cccc(NS(=O)(=O)c3ccc(F)cc3)c2O[C@@H]1CN(C)Cc1ccncc1` was inactive: 0.995; that for `C[C@@H]1CCCCO[C@@H](CN(C)S(=O)(=O)c2cccs2)[C@H](C)CN([C@H](C)CO)C(=O)c2cc(NC(=O)Nc3ccc(F)cc3)ccc2O1` was inactive: 1.01.
The value for `C[C@H](CO)N1C[C@H](C)[C@H](CN(C)C(=O)Nc2ccc(F)cc2)OCCCC[C@H](C)Oc2ccc(NC(=O)NC3CCCCC3)cc2C1=O` was inactive: 0.996; that for `CC(C)CC#Cc1ccc2c(c1)O[C@@H](CN(C)S(=O)(=O)c1cccc(F)c1)[C@H](C)CN([C@@H](C)CO)S2(=O)=O` was inactive: 1.01; that for `CS(=O)(=O)NCc1nnnn1-c1ccc(F)c(F)c1` was inactive: 0.983.
As to `C[C@H](CO)N1C[C@H](C)[C@@H](CN(C)C(=O)CN2CCOCC2)Oc2cc(/C=C/c3ccccc3)ccc2S1(=O)=O`, the relative growth is inactive: 1.02.
The value for `O=C(C[C@H]1C=C[C@@H](NC(=O)c2cnccn2)[C@@H](CO)O1)NCc1ccccc1F` was inactive: 0.988.
The figure for `C[C@H](O)C#Cc1ccc2c(c1)O[C@@H](CN(C)C(=O)CN(C)C)[C@@H](C)CN([C@@H](C)CO)S2(=O)=O` is inactive: 1.03.
The figure for `C[C@@H]1CN([C@H](C)CO)C(=O)c2cc(NC(=O)Nc3ccc4c(c3)OCO4)ccc2O[C@@H](C)CCCCO[C@H]1CN(C)Cc1ccc(C(F)(F)F)cc1` is inactive: 1.01; for `Cc1noc(C)c1NC(=O)Nc1cccc2c1O[C@H](CN(C)C(=O)Nc1cccc3ccccc13)[C@H](C)CN([C@H](C)CO)C2=O` it is inactive: 1.03.
As for `C[C@@H]1CCCCO[C@H](CN(C)S(=O)(=O)c2cn(C)cn2)[C@H](C)CN([C@@H](C)CO)C(=O)c2cc(NC(=O)CCCN(C)C)ccc2O1`, the relative growth was inactive: 0.977.
Take `Nc1ccccc1C(=O)N1CCOCC1`: the relative growth was inactive: 0.991.
Turning to `O=c1cc(CN2CC[C@H](N3CCOCC3)[C@H](CCCO)C2)nc2c(O)cccn12`, the relative growth was inactive: 1.02.
The figure for `COc1ccc(S(=O)(=O)Nc2ccc3c(c2)C(=O)N([C@@H](C)CO)C[C@@H](C)[C@H](CN(C)S(=O)(=O)c2ccc(Cl)cc2)OCCCC[C@H](C)O3)cc1` is inactive: 1.01; for `CCN1CCCC(OC(=O)C(c2ccccc2)c2ccccc2)C1.Cl` (configuration not stated) it is inactive: 0.981.
On to `Nc1ccc2c(c1)OCO2`, for which the relative growth was inactive: 1.03.
The figure for `N=C(N)NCCCC[C@@H]1NC(=O)CCSSC[C@@H](C(N)=O)NC(=O)[C@@H]2CCCN2C(=O)[C@H](Cc2c[nH]c3ccccc23)NC(=O)[C@H](CC(=O)O)NC(=O)CNC1=O` is inactive: 0.991; for `Cn1nnc2c1[C@H](COCC1CC1)CN(C(=O)CS(C)(=O)=O)C2` it is inactive: 1.
As for `COc1ccc(S(=O)(=O)Nc2cccc3c2O[C@H](CN(C)S(=O)(=O)c2ccc(OC)cc2)[C@H](C)CN([C@H](C)CO)C3=O)cc1`, the relative growth was inactive: 1.03.
With `O=C(CN1CCOCC1)NCC[C@H]1CC[C@@H](NC(=O)Cc2ccccn2)[C@H](CO)O1`, the relative growth is inactive: 1.
The value for `C[C@@H]1CN([C@@H](C)CO)C(=O)Cc2cc(NS(=O)(=O)c3cn(C)cn3)ccc2O[C@@H]1CN(C)C(=O)Nc1ccccc1` was inactive: 0.969.
As to `C[C@H]1CN([C@@H](C)CO)C(=O)Cc2cc(NS(=O)(=O)c3ccccc3)ccc2O[C@@H]1CN(C)Cc1ccc(Cl)c(Cl)c1`, the relative growth was inactive: 0.971.
Turning to `O=C(NCCCO)C(=O)NC[C@H]1COc2ccccc2O1`, the relative growth was inactive: 1.02.
Regarding `O=C(O)CNC(=O)c1cc(=O)[nH]c(=O)[nH]1`, the relative growth was inactive: 0.986.
The figure for `CCS(=O)(=O)CCn1c([N+](=O)[O-])cnc1C` is inactive: 1.13; for `C[C@H]1CN([C@@H](C)CO)C(=O)c2cc(NS(=O)(=O)c3ccc(Cl)cc3)ccc2O[C@@H]1CN(C)Cc1ccc(Oc2ccccc2)cc1` it is inactive: 1.01.
In the case of `COc1ccc(-c2cnc3c(c2)C(=O)N([C@@H](C)CO)C[C@H](C)[C@@H](CN(C)C(=O)Cc2cccnc2)O3)cc1`, the relative growth was inactive: 0.989.
Regarding `C[C@@H]1CCCCO[C@H](CN(C)Cc2ccc(C(=O)O)cc2)[C@H](C)CN([C@@H](C)CO)C(=O)c2cc(NC(=O)Cc3ccccc3)ccc2O1`, the relative growth was inactive: 0.977.
For `COc1ccc(S(=O)(=O)Nc2ccc3c(c2)C(=O)N([C@@H](C)CO)C[C@H](C)[C@@H](CN(C)C(=O)Nc2ccc4c(c2)OCO4)OCCCC[C@H](C)O3)cc1`, the relative growth is inactive: 1.03.
The value for `O=C1CNC(=O)N1[C@H]1CCNC1` was inactive: 0.996; that for `O=C1CCc2cc(OCCCCc3nnnn3C3CCCCC3)ccc2N1` was inactive: 1.19.
Regarding `C[C@@H]1CN([C@@H](C)CO)C(=O)Cc2cc(NC(=O)Cn3cnnn3)ccc2O[C@H]1CN(C)S(=O)(=O)c1ccc(F)cc1`, the relative growth was inactive: 1.03.
The figure for `Cc1noc(C)c1NC(=O)N1C[C@H](O)COC[C@H]2O[C@H](CC(=O)N[C@H]3CCN(Cc4ccccc4)C3)CC[C@@H]21` is inactive: 1.03; for `COc1ccc(NC(=O)N(C)C[C@H]2OCCCC[C@@H](C)Oc3ccc(NS(=O)(=O)c4ccc(C)cc4)cc3C(=O)N([C@@H](C)CO)C[C@H]2C)cc1` it is inactive: 1.02.
For the compound `CC(C)NC(=O)N(C)C[C@H]1OCCCC[C@@H](C)Oc2ccc(NC(=O)Nc3ccc(F)cc3)cc2C(=O)N([C@@H](C)CO)C[C@H]1C`, the relative growth was inactive: 0.982.
As for `C[C@H](CO)N1C[C@H](C)[C@@H](CN(C)C(=O)NC2CCCCC2)Oc2ccc(NS(C)(=O)=O)cc2C1=O`, the relative growth was inactive: 1.
